This is one part of the list. Repeats are few or missing, and single values can be far off.

The values below come from the supplement of paper PMC4604168 (melanoma cell lines).
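Note: cells treated in 1,536-well plates, then fixed and DAPI-stained, with nuclei counted from automated high-throughput microscope images.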

This experiment concerns A2058. Briefly: cell count relative to DMSO control; melanoma cells; higher = more viable cells. Particulars: library dose: standard library concentration; 72 h.
`CCc1ccc(CCOc2ccc(CC3SC(=O)NC3=O)cc2)nc1` (stereo unspecified) [pioglitazone] + COC(=O)c1sccc1S(=O)(=O)Nc1ccc(Nc2ccccc2)cc1OC [GSK0660] (first compound 10 µM, partner dose 5 µM) registered a cell count of 87.7%.
Under `CCc1ccc(CCOc2ccc(CC3SC(=O)NC3=O)cc2)nc1` (stereo unspecified) [pioglitazone] + CC(C)CCN1c2nc(Nc3cc(F)c(O)c(F)c3)ncc2N(C)C(=O)C1C [BID1870] (first compound 10 µM, partner dose 1 µM) stands 91.4%; under `CN(NC(=O)CC(=O)NN(C)C(=S)c1ccccc1)C(=S)c1ccccc1` + O=S(=O)(c1ccccc1)N(CC(F)(F)F)c1ccc(C(O)(C(F)(F)F)C(F)(F)F)cc1 [T0901317] (first compound 0.03 µM, partner dose 7 µM), 14.8%; under `CN(NC(=O)CC(=O)NN(C)C(=S)c1ccccc1)C(=S)c1ccccc1` + O=C(O)C(=O)Nc1sc2c(c1C(=O)O)CCNC2 [TCS401] (first compound 0.03 µM, partner dose 8.33333 µM), 14.7%.
Under `NC(=O)c1ccc(N(C(N)=O)c2c(F)cccc2F)nc1-c1ccc(F)cc1F` + CCN(CC)CCCCNc1ncc2cc(-c3cc(OC)cc(OC)c3)c(NC(=O)NC(C)(C)C)nc2n1 [PD173074] (first compound 2 µM, partner dose 0.5 µM) stands 121%; under `CCc1ccc(CCOc2ccc(CC3SC(=O)NC3=O)cc2)nc1` (stereo unspecified) [pioglitazone] + Oc1nc(-c2ccc(C(F)(F)F)cc2)nc2c1CSCC2 [XAV939] (first compound 10 µM, partner dose 10 µM), 76.2%.
